In the antibiotic and cytotoxicity screens of Wong et al. (2023) one finds cytotoxicity call and growth inhibition call data, which are given here for 26 molecules.

Experiment [1] deals with HSkMC (human skeletal muscle cells). Briefly: cytotoxicity call (relative viability < 0.9). The following applies: 10 µM.
In experiment [2] the test system is HepG2. In words: cytotoxicity call (relative viability < 0.9). The following applies: 10 µM.
Experiment [3] has as its system S. aureus RN4220. Briefly: growth inhibition call (relative growth <= 0.2). To be noted: 50 µM.

The other results are listed elsewhere or left out.

Take `Cc1noc(C)c1NC(=O)Nc1ccc2c(c1)C(=O)N([C@@H](C)CO)C[C@@H](C)[C@H](CN(C)C(=O)Nc1c(C)noc1C)OCCCC[C@H](C)O2`: the cytotoxicity call in experiment [1] and in experiment [2] was “inactive” throughout. Besides, the growth inhibition call in experiment [3] was “inactive”.
For the molecule `C[C@@H]1CCCCO[C@@H](CN(C)C(=O)Nc2ccc(F)cc2)[C@@H](C)CN([C@H](C)CO)C(=O)c2cc(NC(=O)Nc3ccccc3)ccc2O1`, the cytotoxicity call in experiment [1] and in experiment [2] was “inactive” throughout. The growth inhibition call in experiment [3] was “inactive”.
`COc1ccc(S(=O)(=O)N[C@@H]2CC[C@H](CC(=O)N3CCC(Cc4ccccc4)CC3)O[C@H]2CO)cc1`: the cytotoxicity call in experiment [1] and in experiment [2] was “inactive” each time. In experiment [3], the growth inhibition call was “inactive”.
Consider `CCc1nc2ccc(C(=O)Nc3ccc4c(c3)OCC(=O)N4)cn2c1N(CC)Cc1cccc(Br)c1`, for which the cytotoxicity call in experiment [1] and in experiment [2] was “inactive” in each case. Also, in experiment [3], the growth inhibition call is “inactive”.
In the case of `C[C@@H]1CCCCO[C@H](CN(C)C(=O)NC2CCCCC2)[C@@H](C)CN([C@@H](C)CO)C(=O)c2cc(NC(=O)Cc3ccccc3)ccc2O1`, the cytotoxicity call in experiment [1] and in experiment [2] was “inactive” throughout. For the same molecule, the growth inhibition call in experiment [3] was “inactive”.
`Cc1ccc(C(N)=S)c(=O)[nH]1`: the cytotoxicity call in experiment [1] and in experiment [2] was “inactive” throughout. For the same molecule, the growth inhibition call in experiment [3] was “inactive”.
For `COc1ccc(S(=O)(=O)Nc2ccc3c(c2)C(=O)N([C@H](C)CO)C[C@H](C)[C@H](CN(C)S(C)(=O)=O)OCCCC[C@@H](C)O3)cc1`, the cytotoxicity call in experiment [1] and in experiment [2] was “inactive” in each case. For the same molecule, the growth inhibition call in experiment [3] was “inactive”.
Regarding `C[N+](C)(C)CCCC[C@@H]1NC(=O)[C@@H]2C[C@H](C(=O)NCc3ccc(F)cc3)[C@H](c3ccc(O)cc3)N2C1=O`, the cytotoxicity call in experiment [1] and in experiment [2] was “inactive” in each case. The growth inhibition call in experiment [3] was “inactive”.
Turning to `C[C@@H]1CN([C@H](C)CO)S(=O)(=O)c2ccc(C3=CCCC3)cc2O[C@@H]1CN(C)S(=O)(=O)c1cn(C)cn1`, the cytotoxicity call in experiment [1] and in experiment [2] was “inactive” throughout. Moreover, the growth inhibition call in experiment [3] is “inactive”.
For the molecule `COc1c2occc2cc2ccc(=O)oc12`, the cytotoxicity call in experiment [1] is “inactive”. The cytotoxicity call in experiment [2] is “active”. Besides, the growth inhibition call in experiment [3] was “inactive”.
As for `COc1ccc(NC(=O)Nc2ccc3c(c2)[C@@H]2C[C@@H](CC(=O)NCc4ccccn4)O[C@H](CO)[C@@H]2O3)cc1`, the cytotoxicity call in experiment [1] and in experiment [2] was “inactive” in each case. Further, the growth inhibition call in experiment [3] was “inactive”.
Take `O=C(C[C@H]1CC[C@@H]2[C@H](COC[C@H](O)CN2C(=O)c2cccnc2)O1)NCc1ccc(-c2ccccc2)cc1`: the cytotoxicity call in experiment [1] and in experiment [2] was “inactive” throughout. Also, the growth inhibition call in experiment [3] is “inactive”.
Turning to `COc1ccc(NC(=O)Nc2cccc3c2O[C@H](CN(C)S(=O)(=O)c2cn(C)cn2)[C@@H](C)CN([C@@H](C)CO)C3=O)cc1`, the cytotoxicity call in experiment [1] and in experiment [2] was “inactive” each time. For the same molecule, in experiment [3], the growth inhibition call is “inactive”.
With `CN(CC(=O)Nc1ccc(F)cc1F)S(=O)(=O)c1ccc2c(c1)c(=O)n(C)c(=O)n2C`, the cytotoxicity call in experiment [1] and in experiment [2] was “inactive” in each case. Moreover, the growth inhibition call in experiment [3] was “inactive”.
Consider `COc1ccc(S(=O)(=O)Nc2ccc3c(c2)C(=O)N([C@@H](C)CO)C[C@@H](C)[C@H](CN(C)C(=O)Nc2cccc4ccccc24)O3)cc1`, for which the cytotoxicity call in experiment [1] and in experiment [2] was “inactive” each time. Further, in experiment [3], the growth inhibition call is “inactive”.
For `Cc1cccc(NC(=O)Nc2ccc3c(c2)C(=O)N(C)[C@@H]2CC[C@H](CC(=O)NCc4ccccc4Cl)O[C@H]2CO3)c1`, the cytotoxicity call in experiment [1] and in experiment [2] was “inactive” in each case. Further, the growth inhibition call in experiment [3] was “inactive”.
With `O=C(C[C@H]1CC[C@H]2[C@@H](COC[C@@H](O)CN2C(=O)Nc2ccc(C(F)(F)F)cc2)O1)NCc1ccncn1`, the cytotoxicity call in experiment [1] and in experiment [2] was “inactive” in each case. Further, the growth inhibition call in experiment [3] was “inactive”.
On to `C[C@@H]1CN([C@H](C)CO)C(=O)CCCn2cc(nn2)CO[C@@H]1CN(C)C(=O)Nc1cccc(C(F)(F)F)c1`, for which the cytotoxicity call in experiment [1] and in experiment [2] was “inactive” in each case. Besides, the growth inhibition call in experiment [3] was “inactive”.
On to `C[C@H](CO)N1C[C@H](C)[C@@H](CN(C)Cc2ccc(-c3ccccc3)cc2)Oc2ccc(NC(=O)Nc3ccc(C(F)(F)F)cc3)cc2CC1=O`, for which the cytotoxicity call in experiment [1] and in experiment [2] was “active” throughout. For the same molecule, the growth inhibition call in experiment [3] was “inactive”.
As for `C[C@H]1CCCCO[C@H](CN(C)C(=O)c2ccncc2)[C@@H](C)CN([C@@H](C)CO)C(=O)c2cc(NS(=O)(=O)c3cn(C)cn3)ccc2O1`, the cytotoxicity call in experiment [1] and in experiment [2] was “inactive” each time. The growth inhibition call in experiment [3] is “inactive”.
As for `CCN(CC)C(=O)c1cccnc1`, the cytotoxicity call in experiment [1] and in experiment [2] was “inactive” in each case. In experiment [3], the growth inhibition call was “inactive”.
With `Nc1cnccn1`, the cytotoxicity call in experiment [1] and in experiment [2] was “inactive” in each case. Moreover, the growth inhibition call in experiment [3] is “inactive”.
With `CCS(=O)(=O)Nc1ccc2c(c1)C(=O)N(C)[C@@H]1CC[C@@H](CC(=O)NCCCN3CCOCC3)O[C@@H]1CO2`, the cytotoxicity call in experiment [1] and in experiment [2] was “inactive” in each case. In addition, the growth inhibition call in experiment [3] is “inactive”.
Turning to `C[C@H]1CCCCO[C@@H](CN(C)CC2CCCCC2)[C@@H](C)CN([C@@H](C)CO)C(=O)c2cc(NS(=O)(=O)c3cccs3)ccc2O1`, the cytotoxicity call in experiment [1] and in experiment [2] was “inactive” in each case. Besides, the growth inhibition call in experiment [3] was “inactive”.
Take `COc1ccc(NC(=O)N(C)C[C@H]2OCCCC[C@@H](C)Oc3ccc(NS(=O)(=O)c4ccc(OC)cc4)cc3C(=O)N([C@H](C)CO)C[C@@H]2C)cc1`: the cytotoxicity call in experiment [1] and in experiment [2] was “inactive” in each case. For the same molecule, the growth inhibition call in experiment [3] is “inactive”.
In the case of `C[C@@H]1CCCCO[C@H](CN(C)C(=O)NC2CCCCC2)[C@@H](C)CN([C@H](C)CO)C(=O)c2cc(NS(=O)(=O)c3cccs3)ccc2O1`, the cytotoxicity call in experiment [1] and in experiment [2] was “inactive” in each case. Besides, the growth inhibition call in experiment [3] was “inactive”.
